# Results published in PubChem BioAssay AID720709 (National Center for Advancing Translational Sciences (NCATS), 2013).
# Hit rate of the full screen: of about 360,000 compounds, about 520 (0.14%) were called active. Inconclusive means that the source gave no clear call. Such entries were picked first, then a sample of the others. Calls follow the shape of the dose curve; as a rule, active = well fitted inhibition curve with a large enough effect; inconclusive = small, poorly fitted or top-dose-only effect; inactive = no such curve, though single readings can be large or run the other way. No potency is given beside an inconclusive call; the fits are too rough.
# Biological target: Rap guanine nucleotide exchange factor 3 (Homo sapiens) (UniProt O95398)
# UniProt O95398, sequence (O95398 whole entry, looked up): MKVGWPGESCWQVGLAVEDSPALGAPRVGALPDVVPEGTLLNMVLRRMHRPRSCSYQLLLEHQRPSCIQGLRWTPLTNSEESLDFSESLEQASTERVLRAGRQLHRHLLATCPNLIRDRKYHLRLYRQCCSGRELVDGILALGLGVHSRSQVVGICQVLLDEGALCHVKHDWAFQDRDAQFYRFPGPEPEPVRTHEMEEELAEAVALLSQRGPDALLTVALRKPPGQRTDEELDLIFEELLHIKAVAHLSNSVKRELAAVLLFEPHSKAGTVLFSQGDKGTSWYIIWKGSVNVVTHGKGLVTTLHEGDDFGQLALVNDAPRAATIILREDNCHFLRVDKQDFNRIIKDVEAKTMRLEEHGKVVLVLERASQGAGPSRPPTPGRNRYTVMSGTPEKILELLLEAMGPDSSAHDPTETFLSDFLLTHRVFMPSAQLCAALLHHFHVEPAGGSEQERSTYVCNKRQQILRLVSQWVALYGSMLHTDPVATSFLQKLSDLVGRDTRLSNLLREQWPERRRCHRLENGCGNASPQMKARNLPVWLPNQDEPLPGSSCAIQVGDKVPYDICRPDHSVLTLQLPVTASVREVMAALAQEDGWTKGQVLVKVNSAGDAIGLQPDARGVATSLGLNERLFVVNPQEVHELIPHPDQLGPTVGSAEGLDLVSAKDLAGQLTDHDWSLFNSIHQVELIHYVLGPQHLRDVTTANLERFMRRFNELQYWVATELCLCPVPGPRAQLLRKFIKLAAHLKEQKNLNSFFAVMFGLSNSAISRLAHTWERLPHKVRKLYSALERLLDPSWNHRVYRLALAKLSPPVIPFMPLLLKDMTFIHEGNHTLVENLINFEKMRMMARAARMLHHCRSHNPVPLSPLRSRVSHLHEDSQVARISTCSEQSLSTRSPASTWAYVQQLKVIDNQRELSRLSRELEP
# Test: qHTS for Antagonist of cAMP-regulated guanine nucleotide exchange factor 3 (EPAC1): primary screen; also: nearly all actives have a fitted effect of over 50% in size;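 as to activity change, negative = inhibition: plate controls were vehicle for no effect and positive control for full effect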
# Conditions: EPAC1 GEF assay, Rap1b-BODIPY-GDP exchange fluorescence; activity change, negative = inhibition: at 115 µM (top of the series)
# Potency is read from the fitted curve at half-maximal effect; tags tell the direction and shape of the fitted curve.
SMILES,Potency,"activity change, negative = inhibition"
Cc1cc(OCc2cc(C(=O)NCc3csc(C(C)C)n3)no2)cc(C)c1Cl,inactive,
Cc1ccc(-c2csc3nc(C)n(N)c(=O)c23)o1,inactive,
Cc1cc(C)cc(Nc2ccc(C(=O)O)cc2[N+](=O)[O-])c1,"inconclusive [inhibitor, full curve, poor fit]",
CCC1CCCCN1CCCNC(=O)c1csc2c1CCCCC2 (configuration not stated),"inconclusive [inhibitor, full curve]",
Cc1ccccc1OCC(=O)Nc1ccc2c(c1)n(C)c(=O)n2C,"inconclusive [inhibitor, partial curve]",
Cc1nc(S/C(=C/c2ccc(OCc3ccc(C(=O)O)cc3)cc2)C(=O)O)n[nH]1,"inconclusive [inhibitor, single point]",
CO/N=C/c1ccc(N2CCN(C(=O)c3cccc(C(F)(F)F)c3)CC2)c([N+](=O)[O-])c1,inactive,
COc1ccc(N2C(=O)[C@H]3[C@@H](C2=O)C2c4ccccc4C=NN2[C@H]3C(=O)C(C)(C)C)cc1 (some centres not stated),inactive,
CC(=O)Nc1cccc(C(=O)Nc2cccc3ncccc23)c1,"inconclusive [inhibitor, partial curve]",
COc1ccc(CN([C@H](CO)CC(C)C)S(=O)(=O)N(Cc2ccccc2)[C@H](CO)CC(C)C)cc1,"inconclusive [inhibitor, full curve]",
Clc1cccc(Cc2c(-c3ccco3)nc3ccc(Br)cn23)c1,"inconclusive [inhibitor, single point]",
COc1ccc2nc(-c3ccccc3)cc(OC)c2c1,"inconclusive [inhibitor, full curve, poor fit]",
COc1ccc(C/C(N)=N/OC(=O)c2ccco2)cc1OC,"inconclusive [inhibitor, full curve]",
COc1ccc(-c2nnn(CC(=O)N(CC(=O)NC3CCCC3)c3ccccc3)n2)cc1OC,inactive,
Cc1cc(SCC(=O)NC2CCCCC2)nc2ccccc12,inactive,
Oc1cccc(/C=N/Nc2cc(N3CCCC3)nc(N3CCCC3)n2)c1,inactive,
O=c1[nH]c(/C=C/c2ccc([N+](=O)[O-])cc2)c([N+](=O)[O-])c(=O)[nH]1,"inconclusive [inhibitor, partial curve]",
Cc1ccc(NC(=O)CCC(=O)NNC(=O)Cc2ccccc2)cc1C,inactive,
CC(C)c1cc(C(=O)NCc2ccc(F)cc2)c(N)s1,inactive,
CN(c1ccc(C(=O)NCc2ccc3c(c2)OCO3)cc1)S(=O)(=O)c1ccccc1,"inconclusive [inhibitor, partial curve, poor fit]",
Oc1ccccc1CNc1cnc2ccccc2c1,inactive,
O=C(CCCCn1c(=O)[nH]c2ccccc2c1=O)NCCc1c[nH]c2ccccc12,"inconclusive [inhibitor, single point]",
CCn1c(NCc2ccccc2NS(=O)(=O)c2ccc(C)cc2)nc2ccccc21,inactive,
CCN(CC)CCCNC1=C(Cl)C(=O)c2ccccc2C1=O,"inconclusive [inhibitor, partial curve, poor fit]",

SMILES,Potency,"activity change, negative = inhibition"
O=C(COc1ccccc1[N+](=O)[O-])N/N=C/c1ccc(O)cc1,"inconclusive [inhibitor, full curve, poor fit]",
CC(C)n1c(Nc2ccccc2)nc2ccccc21,"inconclusive [inhibitor, single point]",
Cc1cc(C)cc(NC(=S)NCc2ccc3[nH]c4c(c3c2)CCCC4)c1,"inconclusive [inhibitor, single point]",
CCC(=O)c1ccc(OCc2ccc(C#N)cc2)cc1,"inconclusive [inhibitor, single point]",
O=C(Nc1sc2c(c1C(=O)O)CCCCC2)c1cccnc1,"inconclusive [inhibitor, full curve, poor fit]",
S=c1[nH]nc(-c2cc(-c3ccccc3)n[nH]2)n1/N=C/c1ccc(Cl)c(Cl)c1,active: 56.2 µM,
O=C(Cn1cnc2scc(-c3cccc([N+](=O)[O-])c3)c2c1=O)NCc1ccco1,active: 56.2 µM,
Cc1cccc(CSCCNC(=S)Nc2ccccc2)c1,"inconclusive [inhibitor, partial curve, poor fit]",
O=c1[nH]c(SCc2ccccc2)nc2ccsc12,"inconclusive [inhibitor, single point]",
CCOc1ccc(S(=O)(=O)Nc2nc3ccccc3nc2Cl)cc1,,inconclusive: -31.2% [inhibitor]
CN1CCN(C2=C(Cl)C(=O)c3ccccc3C2=O)CC1,active: 28.2 µM,
Cc1cccc(/C=C/C(=O)c2cc(Br)ccc(=O)c2O)c1,"inconclusive [inhibitor, partial curve]",
CCOC(=O)C1CCN(Cc2ccc(OCc3ccccc3)cc2)CC1,inactive,
Nc1nc2ncccn2c1-c1ccccc1,inactive,
O=C1Nc2c(Cl)cc(Cl)cc2C1=O,"inconclusive [inhibitor, partial curve]",
COc1ccc(CNc2oc(COc3ccc(Cl)cc3)nc2C#N)cc1,"inconclusive [inhibitor, full curve]",
O=C(CSc1nnc(SCc2ccccc2)s1)N/N=C/C=C/c1ccco1,"inconclusive [inhibitor, partial curve]",
CCOC(=O)[C@]12CCCC=C1N(Cc1ccco1)C(=O)[C@H](CC(=O)NCc1ccccc1)C2,inactive,
O=C(O)c1ccccc1NS(=O)(=O)c1ccc(NNC(=S)Nc2ccc(OC(F)F)cc2)c([N+](=O)[O-])c1,"inconclusive [inhibitor, partial curve]",
O=C(NN=C1CCN(Cc2ccccc2)CC1)c1cc2ccccc2cc1O,"inconclusive [inhibitor, partial curve]",
COc1cc(NC(=O)CN2CC(c3ccccc3)CC2=O)cc(OC)c1 (configuration not stated),"inconclusive [inhibitor, single point]",
S=C(NCCc1ccccc1)N/N=C/c1ccccc1Cl,inactive,
O=C(CNc1cccc(Cl)c1)NNC(=S)NCc1ccccc1,"inconclusive [inhibitor, single point]",
CN1CCN(C(c2ccc(Br)cc2)c2cc(Cl)c3cccnc3c2O)CC1 (configuration not stated),inactive,

SMILES,Potency,"activity change, negative = inhibition"
CCOC(=O)c1c(C)[nH]c(C(=O)C(C)OC(=O)c2ccc(NC(=O)CC#N)cc2)c1C (configuration not stated),"inconclusive [inhibitor, single point]",
COc1ccc(NC(=O)c2ccccc2NS(=O)(=O)c2ccc(C)cc2)c([N+](=O)[O-])c1,inactive,
NS(=O)(=O)c1ccc(-c2ccc(/C=C3\SC(=O)NC3=O)o2)cc1,"inconclusive [inhibitor, partial curve]",
CC(=O)Nc1ccc(C=NNc2ccc([N+](=O)[O-])cc2S(=O)(=O)Nc2ccccc2C(=O)O)cc1,"inconclusive [inhibitor, single point]",
O=C(COCc1cc(-c2ccc3c(c2)OCO3)on1)Nc1cccnc1Cl,inactive,
CCc1nc(SCC(=O)Nc2ccc(OC)cc2[N+](=O)[O-])n[nH]1,inactive,
COc1cccc(C(=O)NC2C(=O)N3C(C(=O)O)=C(COC(C)=O)CSC23)c1 (configuration not stated),"inconclusive [inhibitor, single point]",
CCCCN1C(=O)C(NC(C)=O)c2ccccc21 (configuration not stated),inactive,
COc1ccc(-c2nn(-c3ccccc3)cc2/C=C2/SC(=S)N(CCCC(=O)O)C2=O)c(C)c1,"inconclusive [inhibitor, full curve]",
O=C(CSc1nnc(NC2CCCCC2)s1)Nc1ccc2c(c1)C(=O)c1ccccc1C2=O,"inconclusive [inhibitor, single point]",
COc1ccc(NC(=O)c2ccc(-n3cncn3)c([N+](=O)[O-])c2)cc1,"inconclusive [inhibitor, single point]",
O=C(O)/C=C/c1cn(Cc2ccccc2)nc1-c1ccccc1,inactive,
c1ccc(CSc2ccc(-c3ccco3)nn2)cc1,inactive,
COc1cccc(OCCN2CCN(c3ncnc4c3cnn4-c3ccccc3)CC2)c1,inactive,
CCOc1cc(/C=C2\C(=N)N3N=C(N4CCCCC4)SC3=NC2=O)ccc1OC(=O)c1ccco1,"inconclusive [inhibitor, partial curve]",
O=C(Nc1ccccc1C(=O)O)c1ccc(Br)o1,inactive,
CC(C)Oc1cc(NC(=O)CSCC(=O)Nc2cccc(C(F)(F)F)c2)c(Cl)cc1Cl,"inconclusive [inhibitor, partial curve]",
CCOc1ccc(S(=O)(=O)N2CCc3cc(OC)c(OC)cc3C2)cc1,"inconclusive [inhibitor, single point]",
CCOc1ccc(C2C(C#N)=C(N)SC(N)=C2C#N)cc1OCC,inactive,
O=c1oc2cc(O)ccc2cc1S(=O)(=O)c1ccccc1,"inconclusive [inhibitor, full curve]",
Cc1ccc(N(CC(=O)NCc2ccc3c(c2)OCO3)C(=O)CCC(=O)Nc2ccccn2)cc1,"inconclusive [inhibitor, full curve]",
O=C(Nc1ccc(C(F)(F)F)cc1)c1ccc(NC(=O)C2CCCO2)cc1 (configuration not stated),"inconclusive [inhibitor, single point]",
O=C(Cc1ccccc1Cl)NC1(O)C(=O)c2ccccc2C1=O,inactive,
COc1ccc(C2C(C#N)=C(N)Oc3cc(C)[nH]c(=O)c32)c(OC)c1OC (configuration not stated),"inconclusive [inhibitor, partial curve, poor fit]",
